# Laboratory results: PMC12820563
# The list shows a part of the results. The list includes weakly bound sequences.
# Molecular target: T1, MBP-FoxP3dN (UniProt Q99JB6)
# T1 sequence: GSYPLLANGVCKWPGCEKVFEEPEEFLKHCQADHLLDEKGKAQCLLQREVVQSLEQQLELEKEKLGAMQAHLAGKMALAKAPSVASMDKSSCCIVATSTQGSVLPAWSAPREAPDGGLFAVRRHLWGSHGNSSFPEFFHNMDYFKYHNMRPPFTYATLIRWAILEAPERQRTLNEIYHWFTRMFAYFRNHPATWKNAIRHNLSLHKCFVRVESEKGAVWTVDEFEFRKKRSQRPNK
# Experiment: PD-seq (MBP pull-down with sequencing)
# Conditions: 20 mM Tris-HCl pH 7.5, 100 mM NaCl, 1.5 mM MgCl2, 0.4 uM protein, 0.1 uM dsDNA library, 30 min, room temperature, amylose pull-down; high values mean tight binding; double strand, one strand shown
row,Sequence,binding signal (RPM ratio (pull-down/input))
1,GATGATTGTTCTCCCAGCTGATGAATTTCCTGTTTCGAGTAAACAAATTTTCCTAATCTTTCTGTTCAAGCGCCATCTAC,0.338
2,GATGATTGTTCTCCCAGCTGATGAATTACATGCTTCGAGTAAACAAATTTTCCTAATCTTTCTGTTCAAGCGCCATCTAC,0.846
3,GATGATTGTTCTCCCAGCTGATGAATTGAAGCGTTCGAGTAAACAAATTTTCCTAATCTTTCTGTTCAAGCGCCATCTAC,1.08
4,GATGATTGTTCTCCCAGCTGATGAATTGGGAGAATCGAGTAAACAAATTTTCCTAATCTTTCTGTTCAAGCGCCATCTAC,0.237
5,GATGATTGTTCTCCCAGCTGATGAATTACCCCGTTCGAGTAAACAAATTTTCCTAATCTTTCTGTTCAAGCGCCATCTAC,0.275
6,GATGATTGTTCTCCCAGCTGATGAATTATTAGAGTCGAGTAAACAAATTTTCCTAATCTTTCTGTTCAAGCGCCATCTAC,0.319
7,GATGATTGTTCTCCCAGCTGATGAATTAATCTGATCGAGTAAACAAATTTTCCTAATCTTTCTGTTCAAGCGCCATCTAC,0.222
8,GATGATTGTTCTCCCAGCTGATGAATTTGGAACTTCGAGTAAACAAATTTTCCTAATCTTTCTGTTCAAGCGCCATCTAC,0.32
9,GATGATTGTTCTCCCAGCTGATGAATTCCGGGGTTCGAGTAAACAAATTTTCCTAATCTTTCTGTTCAAGCGCCATCTAC,0.329
10,GATGATTGTTCTCCCAGCTGATGAATTGTGGACTTCGAGTAAACAAATTTTCCTAATCTTTCTGTTCAAGCGCCATCTAC,0.814
11,GATGATTGTTCTCCCAGCTGATGAATTCGTTGATTCGAGTAAACAAATTTTCCTAATCTTTCTGTTCAAGCGCCATCTAC,2.53
12,GATGATTGTTCTCCCAGCTGATGAATTTAAGCAGTCGAGTAAACAAATTTTCCTAATCTTTCTGTTCAAGCGCCATCTAC,0.462
13,GATGATTGTTCTCCCAGCTGATGAATTTGGATGGTCGAGTAAACAAATTTTCCTAATCTTTCTGTTCAAGCGCCATCTAC,0.869
14,GATGATTGTTCTCCCAGCTGATGAATTATCTTTCTCGAGTAAACAAATTTTCCTAATCTTTCTGTTCAAGCGCCATCTAC,0.346
15,GATGATTGTTCTCCCAGCTGATGAATTGACACCCTCGAGTAAACAAATTTTCCTAATCTTTCTGTTCAAGCGCCATCTAC,0.503
16,GATGATTGTTCTCCCAGCTGATGAATTTGAGCGATCGAGTAAACAAATTTTCCTAATCTTTCTGTTCAAGCGCCATCTAC,0.462
17,GATGATTGTTCTCCCAGCTGATGAATTAGTCGATTCGAGTAAACAAATTTTCCTAATCTTTCTGTTCAAGCGCCATCTAC,0.485
18,GATGATTGTTCTCCCAGCTGATGAATTATGGACTTCGAGTAAACAAATTTTCCTAATCTTTCTGTTCAAGCGCCATCTAC,0.516
19,GATGATTGTTCTCCCAGCTGATGAATTTGGGTACTCGAGTAAACAAATTTTCCTAATCTTTCTGTTCAAGCGCCATCTAC,1.24
20,GATGATTGTTCTCCCAGCTGATGAATTAATAGGGTCGAGTAAACAAATTTTCCTAATCTTTCTGTTCAAGCGCCATCTAC,0.423

row,Sequence,binding signal (RPM ratio (pull-down/input))
1,GATGATTGTTCTCCCAGCTGATGAATTACCGGGTTCGAGTAAACAAATTTTCCTAATCTTTCTGTTCAAGCGCCATCTAC,0.319
2,GATGATTGTTCTCCCAGCTGATGAATTCGTGAGTTCGAGTAAACAAATTTTCCTAATCTTTCTGTTCAAGCGCCATCTAC,0.935
3,GATGATTGTTCTCCCAGCTGATGAATTAAAAGTCTCGAGTAAACAAATTTTCCTAATCTTTCTGTTCAAGCGCCATCTAC,0.266
4,GATGATTGTTCTCCCAGCTGATGAATTTATTGGTTCGAGTAAACAAATTTTCCTAATCTTTCTGTTCAAGCGCCATCTAC,5.89
5,GATGATTGTTCTCCCAGCTGATGAATTCGTTTAGTCGAGTAAACAAATTTTCCTAATCTTTCTGTTCAAGCGCCATCTAC,2.93
6,GATGATTGTTCTCCCAGCTGATGAATTTCACCGTTCGAGTAAACAAATTTTCCTAATCTTTCTGTTCAAGCGCCATCTAC,0.334
7,GATGATTGTTCTCCCAGCTGATGAATTATGCAACTCGAGTAAACAAATTTTCCTAATCTTTCTGTTCAAGCGCCATCTAC,6.6
8,GATGATTGTTCTCCCAGCTGATGAATTCCATGTGTCGAGTAAACAAATTTTCCTAATCTTTCTGTTCAAGCGCCATCTAC,0.842
9,GATGATTGTTCTCCCAGCTGATGAATTTTTGTACTCGAGTAAACAAATTTTCCTAATCTTTCTGTTCAAGCGCCATCTAC,0.489
10,GATGATTGTTCTCCCAGCTGATGAATTTATCTAATCGAGTAAACAAATTTTCCTAATCTTTCTGTTCAAGCGCCATCTAC,0.706
11,GATGATTGTTCTCCCAGCTGATGAATTCGAAGTTTCGAGTAAACAAATTTTCCTAATCTTTCTGTTCAAGCGCCATCTAC,0.338
12,GATGATTGTTCTCCCAGCTGATGAATTCTATAGATCGAGTAAACAAATTTTCCTAATCTTTCTGTTCAAGCGCCATCTAC,0.347
13,GATGATTGTTCTCCCAGCTGATGAATTAGCTCAATCGAGTAAACAAATTTTCCTAATCTTTCTGTTCAAGCGCCATCTAC,0.251
14,GATGATTGTTCTCCCAGCTGATGAATTTCAGTCCTCGAGTAAACAAATTTTCCTAATCTTTCTGTTCAAGCGCCATCTAC,0.396
15,GATGATTGTTCTCCCAGCTGATGAATTGACTCGCTCGAGTAAACAAATTTTCCTAATCTTTCTGTTCAAGCGCCATCTAC,0.331
16,GATGATTGTTCTCCCAGCTGATGAATTTAATTCATCGAGTAAACAAATTTTCCTAATCTTTCTGTTCAAGCGCCATCTAC,0.605
17,GATGATTGTTCTCCCAGCTGATGAATTCTAGTCGTCGAGTAAACAAATTTTCCTAATCTTTCTGTTCAAGCGCCATCTAC,0.429
18,GATGATTGTTCTCCCAGCTGATGAATTGATTACTTCGAGTAAACAAATTTTCCTAATCTTTCTGTTCAAGCGCCATCTAC,1.48
19,GATGATTGTTCTCCCAGCTGATGAATTCGTATGCTCGAGTAAACAAATTTTCCTAATCTTTCTGTTCAAGCGCCATCTAC,2.01
20,GATGATTGTTCTCCCAGCTGATGAATTCTCGAGTTCGAGTAAACAAATTTTCCTAATCTTTCTGTTCAAGCGCCATCTAC,0.325
